{
  "source": "the BET-seq Pho4 binding data (Le et al. 2018)",
  "note": "Some of the results follow. The energies were worked out here from pooled read counts, against the library average; single values are noisy.",
  "data": [
    {"target": "T1, Pho4 (S. cerevisiae) (UniProt P07270)", "T1 sequence": "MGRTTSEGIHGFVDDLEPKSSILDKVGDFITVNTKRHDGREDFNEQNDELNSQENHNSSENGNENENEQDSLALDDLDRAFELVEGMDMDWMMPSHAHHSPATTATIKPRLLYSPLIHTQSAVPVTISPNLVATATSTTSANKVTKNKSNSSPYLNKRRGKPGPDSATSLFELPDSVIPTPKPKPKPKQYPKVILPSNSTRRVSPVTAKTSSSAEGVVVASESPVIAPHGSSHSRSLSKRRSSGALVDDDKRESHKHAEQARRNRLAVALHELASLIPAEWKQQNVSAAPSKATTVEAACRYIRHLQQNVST", "experiment": "relative binding free energy (BET-seq); higher = weaker binding", "conditions": "reference: library average", "units": {"relative binding free energy": "kcal/mol"}, "values": [
      {"sequence": "AGCTGCACGTGTAGTG", "relative binding free energy": -0.09},
      {"sequence": "TGTTGCACGTGTGTGT", "relative binding free energy": 0.11},
      {"sequence": "GAGGACACGTGTGTAT", "relative binding free energy": 0.23},
      {"sequence": "GGGGTCACGTGTTACG", "relative binding free energy": 0.11},
      {"sequence": "ACGTTCACGTGCTGGG", "relative binding free energy": 0.15},
      {"sequence": "TTCAGCACGTGTATGT", "relative binding free energy": -0.18},
      {"sequence": "GGCATCACGTGTTAAG", "relative binding free energy": 0.25},
      {"sequence": "GTGCACACGTGGGTAA", "relative binding free energy": -0.01},
      {"sequence": "AGGCACACGTGGTGGG", "relative binding free energy": -0.04},
      {"sequence": "TGGCGCACGTGGGGCA", "relative binding free energy": -0.34},
      {"sequence": "ATGAACACGTGATATG", "relative binding free energy": 0.16},
      {"sequence": "TTTAGCACGTGCTAGT", "relative binding free energy": -0.17},
      {"sequence": "GATTGCACGTGAGCGG", "relative binding free energy": 0.26},
      {"sequence": "AAAGACACGTGCGTGT", "relative binding free energy": 0.05},
      {"sequence": "GGGGCCACGTGAGTGG", "relative binding free energy": 0.05},
      {"sequence": "TGTACCACGTGTAGGC", "relative binding free energy": 0.11},
      {"sequence": "GCTTTCACGTGATTAT", "relative binding free energy": 0.29},
      {"sequence": "GGTGTCACGTGGAACA", "relative binding free energy": 0.11},
      {"sequence": "GGAATCACGTGTCAGG", "relative binding free energy": 0.28},
      {"sequence": "TGTCCCACGTGGAGGT", "relative binding free energy": -0.15},
      {"sequence": "TTCAGCACGTGTGGCG", "relative binding free energy": -0.04},
      {"sequence": "TTATGCACGTGTTGCA", "relative binding free energy": -0.1},
      {"sequence": "AAGGACACGTGCAGGG", "relative binding free energy": 0.04},
      {"sequence": "GAAGACACGTGTTTTG", "relative binding free energy": 0.12},
      {"sequence": "GGTGTCACGTGCCTGT", "relative binding free energy": 0.03},
      {"sequence": "TGGCTCACGTGAGGTA", "relative binding free energy": 0.3},
      {"sequence": "TGTGGCACGTGTTCGA", "relative binding free energy": 0.02},
      {"sequence": "CCGGTCACGTGCGGGG", "relative binding free energy": -0.11},
      {"sequence": "GGGGACACGTGAAGTA", "relative binding free energy": 0.26},
      {"sequence": "GTCTGCACGTGATAGT", "relative binding free energy": 0.16},
      {"sequence": "TGGGGCACGTGTTATA", "relative binding free energy": -0.02},
      {"sequence": "ATTGGCACGTGGAAGT", "relative binding free energy": -0.04},
      {"sequence": "ATGGTCACGTGGTGTA", "relative binding free energy": 0.05},
      {"sequence": "TTCGGCACGTGGGGTA", "relative binding free energy": -0.21},
      {"sequence": "TGGAACACGTGAAAGG", "relative binding free energy": 0.32},
      {"sequence": "ATCAACACGTGTGGGT", "relative binding free energy": 0.06},
      {"sequence": "AGGTTCACGTGTGTGT", "relative binding free energy": 0.32},
      {"sequence": "TTAGCCACGTGAGTAT", "relative binding free energy": 0.16},
      {"sequence": "TGAGACACGTGGAGAG", "relative binding free energy": 0.03},
      {"sequence": "AGGGACACGTGCCTGG", "relative binding free energy": -0.04},
      {"sequence": "GGGTGCACGTGGCGGT", "relative binding free energy": -0.04},
      {"sequence": "GTGTACACGTGTGTAG", "relative binding free energy": 0.1},
      {"sequence": "CGGGGCACGTGTTTAA", "relative binding free energy": -0.09},
      {"sequence": "AGGTTCACGTGCATGA", "relative binding free energy": 0.33},
      {"sequence": "AATTGCACGTGCTTGG", "relative binding free energy": -0.06},
      {"sequence": "TATAACACGTGGCGGT", "relative binding free energy": -0.04},
      {"sequence": "TGTGTCACGTGTGTCC", "relative binding free energy": 0.08},
      {"sequence": "GTGTGCACGTGGACAG", "relative binding free energy": 0.03},
      {"sequence": "GTCGGCACGTGGTTGC", "relative binding free energy": -0.11},
      {"sequence": "CTGCTCACGTGGGCGT", "relative binding free energy": 0.16},
      {"sequence": "AATCGCACGTGGTGGA", "relative binding free energy": -0.07},
      {"sequence": "TGTAACACGTGACTTG", "relative binding free energy": 0.13},
      {"sequence": "TGATGCACGTGGGGCC", "relative binding free energy": -0.13},
      {"sequence": "GACGGCACGTGGGGAT", "relative binding free energy": -0.23},
      {"sequence": "TGCGTCACGTGAGCGG", "relative binding free energy": 0.16},
      {"sequence": "TATCTCACGTGAGGAG", "relative binding free energy": 0.37},
      {"sequence": "GTATTCACGTGTCATG", "relative binding free energy": 0.16},
      {"sequence": "CGGTTCACGTGAATTG", "relative binding free energy": 0.3},
      {"sequence": "TGTGTCACGTGGCTGA", "relative binding free energy": 0.02},
      {"sequence": "TCCGGCACGTGGGGTC", "relative binding free energy": -0.21},
      {"sequence": "ACGGGCACGTGTGTAA", "relative binding free energy": -0.04},
      {"sequence": "GTTTCCACGTGAGTGA", "relative binding free energy": 0.34},
      {"sequence": "GTCGGCACGTGTGGGG", "relative binding free energy": 0.09},
      {"sequence": "AAGCTCACGTGTAGGT", "relative binding free energy": 0.19},
      {"sequence": "ATATACACGTGTTGGG", "relative binding free energy": 0.01},
      {"sequence": "TAGTTCACGTGCTGAG", "relative binding free energy": 0.43},
      {"sequence": "TCGGTCACGTGGATGA", "relative binding free energy": 0.11},
      {"sequence": "GTGGACACGTGGAGGC", "relative binding free energy": 0},
      {"sequence": "TTTCTCACGTGTTGCA", "relative binding free energy": 0.24},
      {"sequence": "GATGACACGTGGGGGT", "relative binding free energy": -0.05},
      {"sequence": "TATTGCACGTGTGGGT", "relative binding free energy": 0.11},
      {"sequence": "GGGCTCACGTGGTTTG", "relative binding free energy": 0.28},
      {"sequence": "GATGTCACGTGGAAGA", "relative binding free energy": 0.28},
      {"sequence": "ATACGCACGTGTGGTG", "relative binding free energy": -0.11},
      {"sequence": "GGTAGCACGTGCTGGT", "relative binding free energy": -0.07},
      {"sequence": "GGTAACACGTGATTAA", "relative binding free energy": 0.3},
      {"sequence": "AAAGGCACGTGAGTTA", "relative binding free energy": 0.06},
      {"sequence": "GACGGCACGTGAGGGA", "relative binding free energy": 0.1},
      {"sequence": "TTCTGCACGTGAAGAT", "relative binding free energy": 0.34},
      {"sequence": "AATTTCACGTGGAGTT", "relative binding free energy": 0.28},
      {"sequence": "AGGAACACGTGGATTT", "relative binding free energy": 0.14},
      {"sequence": "TGATACACGTGGGGCT", "relative binding free energy": -0.01},
      {"sequence": "TTGGGCACGTGACTTT", "relative binding free energy": 0.04},
      {"sequence": "TTTTACACGTGTATGC", "relative binding free energy": 0.05},
      {"sequence": "TGCGCCACGTGGCGTG", "relative binding free energy": -0.14},
      {"sequence": "GCGGTCACGTGGGCAT", "relative binding free energy": -0.01},
      {"sequence": "ATGCTCACGTGGTTGG", "relative binding free energy": 0.12},
      {"sequence": "TGTCTCACGTGTTTTG", "relative binding free energy": 0.35},
      {"sequence": "CGGCGCACGTGTGAGG", "relative binding free energy": -0.12},
      {"sequence": "TGAAGCACGTGTGTCT", "relative binding free energy": -0.15},
      {"sequence": "CGGCTCACGTGGGCGG", "relative binding free energy": 0.18},
      {"sequence": "GTGCTCACGTGCAGTG", "relative binding free energy": 0.18},
      {"sequence": "CGAGTCACGTGTTATG", "relative binding free energy": 0.18},
      {"sequence": "TTGAGCACGTGAGTAG", "relative binding free energy": 0.13},
      {"sequence": "GTAAACACGTGGGGTA", "relative binding free energy": -0.21},
      {"sequence": "TAGTGCACGTGTCCGG", "relative binding free energy": 0.05},
      {"sequence": "TCTTCCACGTGTGGTT", "relative binding free energy": 0.16},
      {"sequence": "TGTGTCACGTGATCAT", "relative binding free energy": 0.1},
      {"sequence": "GCGGCCACGTGGTGTG", "relative binding free energy": -0.08},
      {"sequence": "TTCGTCACGTGTAGTC", "relative binding free energy": 0.14},
      {"sequence": "GTAGACACGTGAGGGC", "relative binding free energy": 0.28},
      {"sequence": "TTAGTCACGTGCTTTA", "relative binding free energy": -0.07},
      {"sequence": "GAAGGCACGTGTAGTA", "relative binding free energy": -0.06},
      {"sequence": "TCGTGCACGTGATTTA", "relative binding free energy": 0.04},
      {"sequence": "TAAATCACGTGGTTAA", "relative binding free energy": 0.13},
      {"sequence": "AAGTTCACGTGAAGAT", "relative binding free energy": 0.34},
      {"sequence": "TATAACACGTGGCATT", "relative binding free energy": 0},
      {"sequence": "CGATTCACGTGGTTGT", "relative binding free energy": 0.24},
      {"sequence": "ATTTGCACGTGGGTCT", "relative binding free energy": -0.21},
      {"sequence": "TGTGTCACGTGAATAA", "relative binding free energy": 0.28},
      {"sequence": "GGATACACGTGGGTAT", "relative binding free energy": -0.1},
      {"sequence": "AAATTCACGTGTTGCT", "relative binding free energy": 0.31},
      {"sequence": "GCGAGCACGTGGGGAG", "relative binding free energy": -0.18},
      {"sequence": "ATAACCACGTGTGTTT", "relative binding free energy": -0.03},
      {"sequence": "CGTGGCACGTGTAGTT", "relative binding free energy": -0.06}
    ]}
  ]
}
